From publication PMC4336329 (PLoS ONE, 2015)
Among all 310,000 compounds or so, about 2,200 (0.71%) showed an effect of 50% or more. Effects have a minus sign here. This is one part of the list.

The compounds below were run against human ether-à-go-go-related gene (hERG) potassium channel (human, UniProt Q12809) (assay: primary screen, population patch clamp on CHO cells stably expressing hERG).
Sequence of human ether-à-go-go-related gene (hERG) potassium channel (Q12809 whole entry, looked up): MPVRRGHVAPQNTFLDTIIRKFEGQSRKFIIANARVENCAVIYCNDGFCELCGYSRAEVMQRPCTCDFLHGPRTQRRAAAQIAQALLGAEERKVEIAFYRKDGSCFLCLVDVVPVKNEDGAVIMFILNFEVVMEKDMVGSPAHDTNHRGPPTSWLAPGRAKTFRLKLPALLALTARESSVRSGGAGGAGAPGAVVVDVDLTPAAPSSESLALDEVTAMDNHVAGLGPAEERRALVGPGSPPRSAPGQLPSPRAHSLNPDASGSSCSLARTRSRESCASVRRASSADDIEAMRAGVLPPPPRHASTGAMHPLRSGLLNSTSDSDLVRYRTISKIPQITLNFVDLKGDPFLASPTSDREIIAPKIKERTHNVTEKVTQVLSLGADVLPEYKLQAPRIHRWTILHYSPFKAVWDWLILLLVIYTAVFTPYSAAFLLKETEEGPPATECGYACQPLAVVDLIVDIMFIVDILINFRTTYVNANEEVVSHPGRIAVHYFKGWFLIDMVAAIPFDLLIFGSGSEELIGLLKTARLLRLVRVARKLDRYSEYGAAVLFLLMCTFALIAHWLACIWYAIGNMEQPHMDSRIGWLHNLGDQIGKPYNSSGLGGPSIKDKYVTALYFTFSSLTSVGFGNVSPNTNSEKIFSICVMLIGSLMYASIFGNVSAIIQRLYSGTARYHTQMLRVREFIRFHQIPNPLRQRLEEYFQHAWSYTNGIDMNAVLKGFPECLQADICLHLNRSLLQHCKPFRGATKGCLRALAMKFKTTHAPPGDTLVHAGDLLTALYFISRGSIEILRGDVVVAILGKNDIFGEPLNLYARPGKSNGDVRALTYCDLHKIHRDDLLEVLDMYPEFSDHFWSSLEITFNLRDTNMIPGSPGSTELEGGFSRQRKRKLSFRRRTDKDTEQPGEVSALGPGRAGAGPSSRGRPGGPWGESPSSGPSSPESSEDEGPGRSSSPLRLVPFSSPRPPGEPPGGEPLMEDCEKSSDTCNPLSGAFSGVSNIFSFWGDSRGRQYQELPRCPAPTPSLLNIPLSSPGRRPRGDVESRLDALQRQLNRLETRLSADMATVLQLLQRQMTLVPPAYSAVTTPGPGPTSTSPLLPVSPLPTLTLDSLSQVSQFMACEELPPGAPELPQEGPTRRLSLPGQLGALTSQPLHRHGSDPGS

| SMILES | hERG current change (%, negative = inhibition) at 1uM |
| --- | --- |
| COc1cc(C(=O)NCC(=O)N/N=C(/C)c2cccs2)cc(OC)c1OC | 5.74% |
| CSS(=O)(=O)c1cccc2cccnc12 | 14.2% |
| CC(C)(C)c1ccc(C(=O)NC(=S)Nn2cnnc2)cc1 | 14.5% |
| Cc1ccc(-c2c(NC(=O)c3ccco3)oc3ccccc3c2=O)cc1 | 25.7% |
| CCOC(=O)C(C)Oc1ccc(NC(=O)C(Cl)Cl)cc1 (centres unmarked) | 5.83% |
| CCOC(=S)N/C(=N\S(=O)(=O)c1ccc(C)cc1)c1ccccc1 | 11.6% |
| O=C(Nc1ccc(NC(=O)N2CCN(c3ccccc3O)CC2)cc1)N1CCN(c2ccccc2O)CC1 | 14.5% |
| Cc1cccc(Nc2ccccc2C(=O)OCC(=O)N(C)C2CCS(=O)(=O)C2)c1C (centres unmarked) | 1.68% |
| CC(C)OCCCNC(=O)c1cc(Sc2ccc(F)cc2)nc2ccccc12 | 3.36% |
| COc1cc(CNC2CCCCCC2)cc(OC)c1O.O=C(O)C(=O)O | 16% |
| Cc1cc(Cl)ccc1C(=O)C1CCCN(C(=O)c2cc(C(C)C)no2)C1 (centres unmarked) | 0.288% |
| COC(=O)c1c(C(=O)OC)c2ccccn2c1C(=O)c1ccc([N+](=O)[O-])cc1 | 8.27% |
| CC1=Nc2ccccc2N=C(NC(=O)CSC(=S)N2CCN(C)CC2)C1c1ccccc1 (centres unmarked) | 9.3% |
| COc1ccc(NC(=O)CN(C)C(=O)c2ccc(NC3CC3)c([N+](=O)[O-])c2)cc1 | -68.6% |
| Cc1ccc(N2C(=O)N(CC(=O)Nc3ccc(C)cc3C)C(=O)C2C)cc1 (centres unmarked) | 7.69% |
| COc1ccc(S(=O)(=O)Nc2cccc(N(C)S(C)(=O)=O)c2)cc1C | -6.27% |
| CCOC(=O)c1ccc(NC(=S)NNC(C)(C)C)cc1 | 13.8% |
| O=C(NN1C(=O)/C(=C/C=C/c2ccco2)SC1=S)c1ccncc1 | 8.9% |
| COc1ccccc1/C=C1\SC(=S)N(CCC(=O)NNC(=O)c2ccccc2OC)C1=O | 19.4% |
| CN(C)S(=O)(=O)c1ccc(NC(=O)CN2CCOCC2)cc1 | 14.3% |
| CCCCC(CC)Cn1c(O)c(/C=C2\C=NN=C2c2ccccc2)sc1=S (centres unmarked) | 13.6% |
| CC(=O)Nc1ccc(CC(=O)O)cc1 | 6.86% |

| SMILES | hERG current change (%, negative = inhibition) at 1uM |
| --- | --- |
| C[C@]12CCC(=O)C=C1CC[C@@H]1[C@@H]2[C@@H](O)C[C@@]2(C)[C@H]1CC[C@]2(O)C(=O)COC(=O)CCC(=O)O | 2.01% |
| CCOc1ccc(C2C(C#N)=C(N)N(N(C)C)C3=C2C(=O)CCC3)cc1 (centres unmarked) | 4.92% |
| Cn1c(=O)c2c(nc(Cl)n2Cc2ccncc2)n(C)c1=O | 9.41% |
| CCOC(=O)c1[nH]cnc1N=Nc1c(O)ccc2ccccc12 | 20.1% |
| CCN1C(=O)/C(=C/c2ccc(OC)c(OC)c2)N=C1SCC(=O)NCc1ccco1 | 7.53% |
| Cc1ccc(N(Cc2ccccc2)C(=O)c2cc(S(=O)(=O)N3CCOCC3)ccc2F)cc1 | 13.3% |
| COC1(OC)N=C(N)C2(C#N)C(c3ccc4c(c3)OCO4)C12C#N (centres unmarked) | 5.72% |
| O=C(/C=C/c1ccc(Cl)c([N+](=O)[O-])c1)NCc1cccnc1 | 4.87% |
| CC(=O)c1c(C)[nH]c(C(=O)OCc2ccccc2)c1C | 6.42% |
| CN(C)CC(C)(C)CNC(C(=O)Nc1ccc(Cl)cc1C(F)(F)F)c1ccccc1 (centres unmarked) | -72.3% |
| COC(=O)c1ccc(NC(=O)COc2ccc(S(=O)(=O)NC(C)C)cc2)cc1 | 6.03% |
| COc1ccc(Cl)cc1N1C(=O)C2CCCN2C1c1ccc(F)c(F)c1 (centres unmarked) | 9.22% |
| O=C(CCl)Nc1ccccc1C(=O)Nc1ccc2c(c1)OCO2 | 13.7% |
| COc1ccc(OC)c(NC(=O)CCNS(=O)(=O)c2ccc3c(c2)c(=O)n(C)c(=O)n3C)c1 | 7.79% |
| CCN(CC(=O)Nc1ccc(NC(C)=O)cc1)C(=O)CSCc1c(C)noc1C | 6.09% |
| CC(C)(C)SCCNC(=O)CN(c1ccc(F)c(Cl)c1)S(C)(=O)=O | 11.5% |
| COc1cc(CN2CCN(Cc3ccccc3C(F)(F)F)CC2)cc(OC)c1OC.O=C(O)C(=O)O | 6.8% |
| CC1(C(=O)OCC(=O)Nc2ccc(C(N)=O)cc2)CC1(Cl)Cl (centres unmarked) | 12.2% |
| CCOC(=O)COc1c(Br)cc(/C=C2\SC(=O)N(CC(=O)N3CCCC3)C2=O)cc1OC | -0.0712% |
| COC(=O)c1sccc1NC(=O)CC1C(=O)NCCN1C(=O)Nc1ccccc1 (centres unmarked) | 10.5% |
| CC(Sc1nn(-c2ccccc2)c(=S)s1)C(=O)NCC1CCCO1 (centres unmarked) | 4.03% |
| CC1CCc2sc(C(=O)NNC(=S)NC3CC3)cc2C1 (centres unmarked) | 6.68% |

| SMILES | hERG current change (%, negative = inhibition) at 1uM |
| --- | --- |
| CCOC(=O)Cc1nnc(NC(=O)CSc2nncn2C)s1 | 2.8% |
| COc1ccc(C(CNC(=O)COc2cc(C)c(Cl)c(C)c2)N2CCCCC2)cc1 (centres unmarked) | 10.8% |
| O=C(Nc1ccc2c(c1)OCO2)c1ccc(CO)cc1 | 12.1% |
| O=C(CSc1nnnn1-c1ccc2c(c1)OCCO2)N1CCN(C(=O)c2ccco2)CC1 | 1.93% |
| S=C(NCCSCc1ccc(Cl)c(Cl)c1)Nc1ccccc1 | 15.7% |
| COC(=O)c1c(C#N)c(N)nc2c1CCC2 | 15.5% |
| O=C(c1cc(F)ccc1F)C1CCCN(CCCc2ccccc2)C1 (centres unmarked) | -76.6% |
| CC(=O)N1CCN(C(C)=O)C1c1ccccc1 | 11.3% |
| COc1ccc(Cn2c(O)c(C=Nc3ccc(O)cc3)c3ccccc3c2=O)cc1 | 8.8% |
| O=C(CCC1CCCCC1)NCc1ccc(F)cc1 | 6.93% |
| Nc1nc2ccccc2n1C(=O)c1ccc(F)cc1 | 7.63% |
| CCOc1ccc(CN2CCN(Cc3cnc(-c4ccccc4)s3)CC2CCO)cc1 (centres unmarked) | -90.1% |
| CCC(C)(O)c1[nH]c2ccc(C(F)(F)F)cc2c1C (centres unmarked) | 19.3% |
| CC(O)c1cccc(N=Cc2ccc3ccccc3c2O)c1 (centres unmarked) | 15.6% |
| CN(C)C(=N)N=C(N)N.Cl | 14.8% |
| C/C(=N\Nc1cc(C)nc(-c2ccccc2O)n1)c1ccccc1 | 11.1% |
| COCCOC(=O)c1c(C)n(C)c2ccc(OC(=O)N3CCOCC3)cc12 | 3.62% |
| C=CCN(c1ccccc1)S(=O)(=O)c1cccc(C(=O)NCC2CCCO2)c1 (centres unmarked) | -0.421% |
| COc1ccc(/C=C/C(=O)OCC(=O)Nc2cc(C(F)(F)F)ccc2Cl)cc1 | -4.25% |
| Cc1cccc(NC(=O)NC2CC(=O)N(c3ccc4c(c3)OCCO4)C2)n1 (centres unmarked) | 7.82% |
| CCC(C)C(=O)N1c2ccccc2C(=C2SC(C(=O)OC)=C(C(=O)OC)S2)C(=S)C1(C)C (centres unmarked) | 2.74% |
| Nn1c(SCC(=O)NCC2CCCO2)nnc1-c1ccc(OC(F)F)cc1 (centres unmarked) | -24.9% |

| SMILES | hERG current change (%, negative = inhibition) at 1uM |
| --- | --- |
| c1ccc(Nc2cc(Nc3ccccc3)[nH]n2)cc1 | 3.66% |
| CC1(C)CC(=O)C2=C(C1)OC(N)=C(C#N)C2c1ccc2c(c1)OCO2 (centres unmarked) | 5.79% |
| COc1ccc(NC(=O)NCCCN2CCCC2=O)cc1 | 5.78% |
| NC(=O)[C@@H]1CC2(CC(c3cccc(NC(=O)CC(c4ccccc4)c4ccccc4)c3)=NO2)CN1C(=O)[C@@H]1CCC(=O)N1 (some centres unmarked) | 0.0108% |
| Cc1cc(C(=O)CN2C(=O)C(=O)N(Cc3ccco3)C2=O)c(C)n1CCc1ccccc1 | 4.99% |
| COc1ccc(C(CNC(=O)C(CCSC)NC(=O)c2ccccc2OC)N2CCCCC2)cc1 (centres unmarked) | 3.85% |
| COCCN(Cc1ccccc1)C(=O)c1ccc2c(=O)n3c(nc2c1)CCC3 | -6.57% |
| COc1ccccc1NC(=O)NCC(=O)Nc1ccc(F)c(F)c1 | 5.97% |
| Cc1cc(C)nc(SC2CC(=O)N(c3ccc(Br)cc3)C2=O)n1 (centres unmarked) | 9.87% |
| O=C(CCCN1CCC(NC(=O)c2ccccc2)CC1)c1ccc(Cl)cc1 | -59.5% |
| O=C(NCC(NS(=O)(=O)OCC(Cl)(Cl)Cl)c1ccccc1)C(F)(F)F (centres unmarked) | 7.85% |
| COc1cc(OC)cc(-c2nc(=S)n3ccsc3n2)c1 | 12.4% |
| Cc1ccc(-c2cn(C[C@H]3CC[C@@H]([C@@H]4CC[C@H](Cn5cc(-c6ccc(C)cc6)nn5)O4)O3)nn2)cc1 | 0.937% |
| CC(/C=N/NC(=O)CNc1n[nH]c(=O)[nH]c1=O)c1ccccc1 (centres unmarked) | 2.65% |
| COc1ccc(CNC(=O)CCCCCn2c(SCC#N)nc3cc4c(cc3c2=O)OCO4)cc1 | 8.04% |
| Cc1cc(Br)ccc1OCCN1CCCC1.O=C(O)C(=O)O | -7.85% |
| Cc1cccc(NS(=O)(=O)c2ccc(Cl)cc2)n1 | 18.3% |
| O=C1C2CC=CCC2C(=O)N1c1ccc(OCC(O)Cn2nnc3ccccc32)cc1 (centres unmarked) | 4.09% |
| CN(CCCNC(=O)c1cccc(N2CCCC2=O)c1)c1ccccc1 | 0.567% |
| Nc1nn2cc(-c3ccc(Br)cc3)nc2c2ccccc12 | 5.13% |
